Test results as given in the supplement of paper PMC12632987.
Over roughly 1,800 sequences, “median log2 fold change of GCK-ALFA target abundance (FLAG IP / Myc IP barcode read proportion)” has its median near 0.14; the lowest 2% begin near -0.84. This is one part of the list.

T1: TRAF2, Q12933
T1 chain: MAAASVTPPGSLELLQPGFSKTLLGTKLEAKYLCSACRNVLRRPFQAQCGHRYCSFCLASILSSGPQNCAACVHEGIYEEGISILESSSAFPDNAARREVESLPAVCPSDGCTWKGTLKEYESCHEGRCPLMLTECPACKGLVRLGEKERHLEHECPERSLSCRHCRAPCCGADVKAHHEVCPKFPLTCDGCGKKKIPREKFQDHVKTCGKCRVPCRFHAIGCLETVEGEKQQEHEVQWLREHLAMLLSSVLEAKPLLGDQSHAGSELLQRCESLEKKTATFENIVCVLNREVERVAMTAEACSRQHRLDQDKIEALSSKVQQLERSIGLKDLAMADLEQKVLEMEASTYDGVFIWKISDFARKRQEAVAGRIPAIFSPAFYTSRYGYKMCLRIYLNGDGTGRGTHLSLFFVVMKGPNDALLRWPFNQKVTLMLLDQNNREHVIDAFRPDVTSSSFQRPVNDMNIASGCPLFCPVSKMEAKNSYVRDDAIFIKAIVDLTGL

B1: traf2_out_11_79_930 (protein)
chain: EELLEELRRLLEEAKRKLEELIKKKEAGEITEEEWKKTLEEIDRLLQRAAQLALELGLSDVLVLISEARRHVLLAYSGDLEALKEALKKVEEALELLEKE
B2: traf2_out_20_3_2260 (protein)
chain: EELKKEAKEYLEKAKKLLEEIKPHLPPEDAARAEELLKKAEEAFEKDVSDALVYVSELRRLARARAERARAAGDEELAAKLEELADVLNKLANLLYKIEQ
B3: traf2_out_20_3_2111 (protein)
chain: SELEKELEKKLEEALAKLKEAAKLADPETAKVLKELAKKLEESKSLSPSDRLVVVSEIKRQVLLLQQQAEAAGKTELAKVLAEAADALNKAAGLLMKIIE
B4: traf2_out_11_155_727 (protein)
chain: EARRQAQNEIVDYNLAIGDKLLAVVEAVIARVAERDPAVAAELRAVVARHLRYSATSAARAAIDLLRARGLEAEAAELEAALEAAQKEASKKNKEIEAKL
B5: traf2_out_6_3_2512 (protein)
chain: EEEEERKRNEEALEEAAEMSLETIKIAAETTLKELEKAVEDPNATETDFLAYKSSLNLLLEIMKKHAEKHPEEKEEAEKFIEEMKKKLEELEKEWKKKRA
B6: traf2_out_6_156_2423 (protein)
chain: MKEEILKEAKKKIKEEIKKLAKASEEKKIQYISKIAGAVYRALQRLREAGASVEELKEAVKELKKVAKEEAEKEGLDEDTINLLLGSINAVGEVALREAK
B7: traf2_out_16_104_1407 (protein)
chain: SAATTAAYQAIIAELEAIAEELGRLANKIYKAMETASEEEKKKLSEALVEASELRREALQAAEAARQALATGGDLAAAQAALAKLKAKAKEVKEKAEKLF
B8: traf2_out_5_189_2321 (protein)
chain: SSKEKENEELRERARRLSREASELFNRLIEEGKSYEEMIDELLARVAELPIDDAALFTGIAYSILEGEALAKNDEELLKAAREFRARARALIAARRAAAA
B9: traf2_out_13_95_1070 (protein)
chain: TRELARRINELADRAEERALALLAAAQAELADDPEAVAVLDEAARLAETRGIRAAIALLREAQAAHPEHREAFDALIAELEEIRRELGREVAKLIKEAEE
B10: traf2_out_20_38_2025 (protein)
chain: SEEEEEEKKLEELIKVANDAYDAATAEIAALKAEGKSVEEIAEWAKEKIKEILDKVGLEEEKEELIADVDRVLDSPDALTLIARILARAVAKAKQKELQE
B11: traf2_out_20_3_2141 (protein)
chain: EELEKKLEEELKKAIELLKEAAKLADEETAKKLEKLIKELKESKNLSYEDRLVKLSEIRREVRLLAEEARKAGKEELAKLLEEAAEELNEAMNIVMKIIE
B12: traf2_out_18_167_1877 (protein)
chain: SAELEAEYEKATDELVRLSTIRRWLLRALEALRESREAALAVLRAALAELPDSEVLKEALEVAETESPEALRAFLESKAEELQKKANEAYKKLEELRKKK
B13: traf2_out_11_104_655 (protein)
chain: LTREQAREFNDFAMEARDRAREIAEAVAAELEARGHTEEAARVRALLNDPGAGISSFRNLLEELKPRLDAESRKVADAAIEELRRLQREVSEKLNELLAK
B14: traf2_out_17_162_1559 (protein)
chain: SPLEEEWERLLERLEELERRVRELEERLERLEELSKEEITDLLVEASEVRREALELAERARELEPEIGEERAQELIERAEEIAEEAQRIANILYQRLLEK
B15: traf2_out_17_162_1578 (protein)
chain: EELKKELEELKKKLEELKKKLKEFEKKLPELPKMSYEELTDLLVEVSELKREARELAEKLEELGKKLGEEEIKKLVEEAKEIAEKLQKIANKIYKEIEKK
B16: traf2_out_16_104_1386 (protein)
chain: SAATQAKFDKIIAELEKIAEEAQKLANQIYKLYEKASPEKKTELSDLLVEVSEIKRKALEAAEAARRAQAAGGDPKEAEEELKKLEKELKKAKKQLKELE
B17: traf2_out_11_155_675 (protein)
chain: SRETELNNELVDKMTEINDELKARLDAIAAEAVADHPEHAAEVAAVVEEGRKYSGTTYAGRLEQLFRRLGLEEYAARVAAAREEAQKRANEVLKKIEAEL
B18: traf2_out_11_169_879 (protein)
chain: EEAEKNRKLNDKALELNDEAKEELKKFALELAKKLGLNVEEIEKIFEENKNKSLSYVASELIKYFREKGKEEAAEAILKKYEELKEKINKEFSKFLKELE
B19: traf2_out_14_166_1274 (protein)
chain: MSPEEIAKIKEIADKQLELADEFVERARALIEKHKDRLSPELLARLNALLAQAENRGLRTVYLLLRQMAELAEEAGNEELAEEFRRLAEEAEEKYKELLK

Molecular target: T1, TRAF2, Q12933
Assay: median log2 fold change of GCK-ALFA target abundance (FLAG IP / Myc IP barcode read proportion) (log2 ratio); each designed protein is fused to an ALFA-tag nanobody in HEK293 cells to bring the named protein to FLAG-tagged glucokinase (GCK); Myc marks an untargeted standard; higher = target protein stabilised (more abundant)
Conditions: target protein: 3xFLAG-MCP-GCK-ALFA reporter; HEK293 landing pad (RPLP)
Summary of the method: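 An ALFA-nanobody-fused binder library was recombined into HEK293 landing-pad cells and induced with 2 μg mL^−1 doxycycline. Cells were transfected with a plasmid expressing a FLAG-tagged target and a Myc-tagged standard. After 48 h, lysates underwent anti-FLAG and anti-Myc immunoprecipitation, and circular RNA barcodes were reverse transcribed, amplified and sequenced. Target abundance is the per-binder median log2 ratio of FLAG to Myc barcode read proportions. Barcodes needed ≥10^−7 proportion in both replicates, binders ≥3 barcodes per replicate, and a 10^−6 pseudocount was added; the two replicates were pooled.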
B1 was tested, and the “median log2 fold change” value was 0.072. B2 was tested, and the “median log2 fold change” value was 0.243. With B3 the “median log2 fold change” value was 0.33. With B4 the “median log2 fold change” value was 0.0983. With B5 the “median log2 fold change” value was 0.417. B6 was tested, and the “median log2 fold change” value was 0.0521. With B7 the “median log2 fold change” value was -0.265. B8 was tested, and the “median log2 fold change” value was 0.176. For B9, the “median log2 fold change” value was -0.334. B10 was tested, and the “median log2 fold change” value was -0.841. With B11 the “median log2 fold change” value was 0.362. For B12, the “median log2 fold change” value was 0.303. For B13, the “median log2 fold change” value was 0.222. With B14 the “median log2 fold change” value was 0.0845. B15 was tested, and the “median log2 fold change” value was 0.34. B16 was tested, and the “median log2 fold change” value was 0.166. B17 was tested, and the “median log2 fold change” value was 0.222. B18 was tested, and the “median log2 fold change” value was -0.034. For B19, the “median log2 fold change” value was 0.308.
